# Source: the supplement of paper PMC11417369
# The list shows a part of the results.
# System: PF3D7_0420300 AP2 domain 1 (GST-tagged)
# Assay: gcPBM binding intensity (ln(normalized median fluorescence intensity)); higher = stronger DNA binding
# Procedure, shortened: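 Each value is the highest Masliner-normalised natural-log median intensity across replicate spots of either orientation of a probe. The probes were primer-extended double-stranded 36-bp intergenic genomic sequences on an Agilent 4 × 180k array, alongside negative controls, exposed for 1 h to GST-tagged P. falciparum DNA-binding domains expressed in E. coli. Bound protein was picked up with Alexa488 anti-GST antibody and scanned at 488 nm.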
row,Sequence,gcPBM binding intensity (ln)
1,AATATATATATGATTATATATATATATATATATATA [GTGCAC_negctrl_site290],8.86
2,AAAATAACACAAATGGGTACATATTATATTAAATAA [XGTACX_site7027],9.46
3,TTTAATTAAAATATATGTACATATATATATATATAT [XGTACX_site4517],9.12
4,ATATATTCATTTTTATGTACGTAAATTGTAAATTGG [XGTACX_site8242],9.16
5,TGCATTATTTTATGAAGTACATATGAACAAAAAATT [XGTACX_site2185],9.07
6,AAAATAATAATAAAAAGTACATGTGTATATAATAAA [XGTACX_site754],9.6
7,AAAGAAGGTAAACACACACACACACCGACAAAAAAA [CACACA_site9255],10.3
8,AAATTATCCAAAAATTGTACTTAAAACAACATAAAA [XGTACX_site6238],9.16
9,TTTCTCTTATTCCAATCTATAATAAGTATCAATATT [CACACA_negctrl_site179],9.13
10,ACCATTTGTAGGTAAACACACATTATTCTTAATATC [CACACA_site5453],9.36
11,AAAAAAAAAAAGCACACACACATATGCGTATATATA [CACACA_site954],9.79
12,TTTTTTTCGTATATTACACACTATATATAGAAATTA [CACACA_site298],9.32
13,GGAGAAAAAAAAAAAAAACACACGGTACATTCAAAG [CACACA_site1503],9.55
14,TTATTAAAGGAAAAATGTACATATAAATGAATATGT [XGTACX_site23],9.33
15,AAAAAATGTAAATATAAACAACCAAAGGGGGTATAC [GTGCAC_negctrl_site465],9.7
16,TTAAAGTATAACTGTACATGCGAGTAAAAGAATGAC [TGCATGCA_site899],9.62
17,ATAATATTTTATGGTTGTACTTTTAGTTCTTTTTTT [XGTACX_site5756],9.4
18,ATTAAATATATTTTGCGTACACAAAAAAATACGTTC [XGTACX_site3862],9.15
19,TACGTGAAGTTATATACACACATAAATATGTCTGTA [CACACA_site7463],9.33
20,GAAAAAAAACACATTGTGCACTTTTCCTTAAGTATA [GTGCAC_site9475],9.13
21,AATCAAAATATATCTACACACATTTAAGTAACACAT [CACACA_site3482],9.66
22,TTATAATAAAGAGGAGTGCAAAAAAAAAAAAAAAAA,8.86
23,TAAATATCAAAACACACACACAAAAGTGAATAAATA [CACACA_site3762],9.97
24,TATTAATTAAACCATACACACATAACTTTTTTATAA [CACACA_site6526],9.6
25,ATTTTTTTCTTAGGAGTGCACTTATATTTATTTTAT,9.52
